Reference: the antibiotic and cytotoxicity screens of Wong et al. (2023)
The other results are listed elsewhere or left out.

Columns and labels:
HSkMC = human skeletal muscle cells; experiment: cytotoxicity call (relative viability < 0.9); details: 10 µM
HepG2 = experiment: cytotoxicity call (relative viability < 0.9); details: 10 µM
S. aureus RN4220 = experiment: growth inhibition call (relative growth <= 0.2); details: 50 µM

SMILES | cytotoxicity call (HSkMC) | cytotoxicity call (HepG2) | growth inhibition call (S. aureus RN4220)
COc1cccc(OC[C@@H](O)CN(CCO)CCO)c1 | inactive | inactive | inactive
COc1ccc(NC(=O)Nc2ccc3c(c2)CC(=O)N([C@@H](C)CO)C[C@H](C)[C@@H](CN(C)S(=O)(=O)c2c(C)noc2C)O3)cc1 | inactive | inactive | inactive
C[C@H](CO)N1C[C@H](C)[C@@H](CN(C)C(=O)Cc2cccnc2)Oc2ncc(C#CC3(O)CCCC3)cc2C1=O | inactive | inactive | inactive
CCS(=O)(=O)N1CCCn2c(nc(Cn3cncn3)cc2=O)C1 | inactive | inactive | inactive
Nc1nc(S)c2nc[nH]c2n1 | inactive | active | inactive
O=C(C[C@@H]1CC[C@H](NC(=O)CN2CCOCC2)[C@@H](CO)O1)NCCc1ccccc1 | inactive | inactive | inactive
COc1ccc(S(=O)(=O)Nc2cccc3c2O[C@@H](CN(C)C(=O)Nc2cccc4ccccc24)[C@@H](C)CN([C@@H](C)CO)C3=O)cc1 | inactive | inactive | inactive
O=C(C[C@@H]1C[C@H]2c3cc(NS(=O)(=O)c4ccc(F)cc4)ccc3O[C@H]2[C@@H](CO)O1)NC1CCCC1 | inactive | inactive | inactive
C[C@@H]1CCCCO[C@H](CN(C)C(=O)NC2CCCCC2)[C@H](C)CN([C@@H](C)CO)C(=O)c2cc(NC(=O)Cc3ccccc3)ccc2O1 | inactive | inactive | inactive
C[C@@H]1CCCCO[C@H](CN(C)Cc2ccc(C(=O)O)cc2)[C@H](C)CN([C@@H](C)CO)C(=O)c2cc(NS(=O)(=O)c3ccc(F)cc3)ccc2O1 | inactive | inactive | inactive
